From the supplement of paper PMC11417369
The other results are listed elsewhere or left out.

Tested on: PfHDP1 homeodomain (GST-tagged)
Experiment: gcPBM binding intensity (ln(normalized median fluorescence intensity)); higher = stronger DNA binding
Summary of the method: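 Each value is the highest Masliner-normalised natural-log median intensity across replicate spots of either orientation of a probe. The probes were primer-extended double-stranded 36-bp intergenic genomic sequences on an Agilent 4 × 180k array, alongside negative controls, exposed for 1 h to GST-tagged P. falciparum DNA-binding domains expressed in E. coli. Bound protein was picked up with Alexa488 anti-GST antibody and scanned at 488 nm.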

| Sequence | gcPBM binding intensity (ln) |
| --- | --- |
| TATTTAATACGGACTCATAAATCTTAATAAAAAAAA [CACACA_negctrl_site434] | 6.1 |
| TTTAAGCAAAAACACACACACATATATATATATATA [CACACA_site349] | 9.16 |
| AAAAAATGATAATATACACACTTATGGGAGAGCGCA [CACACA_site5398] | 6.47 |
| TATAAATATATATACACACACATATATATTATATAT [CACACA_site596] | 6.74 |
| ATTATGTTTCTTTTTTTTTTTAAAGGATGTCTTTTT [CACACA_negctrl_site974] | 6.54 |
| TATAAAAAAAACGAAAAAAAAAAAAAAAATACAGGA [TGCATGCA_negctrl_site585] | 6.47 |
| ATATATTTTTAAAAAAATTAAGAATTTTACATCTCC [CACACA_negctrl_site1450] | 6.01 |
| AAAAAAAAAAGACATGCATACGCTAATTTTTAGTTG [TGCATGCA_site300] | 5.98 |
| TATTATAATAAGAAGTGTACGTGTTTTTATAAATAA [XGTACX_site575] | 6.52 |
| TGATAATAAGCATACACACACACACTAGAAAAAAAA [CACACA_site4558] | 6.79 |
| TGTTCTTTATTTTATTGTACTTTTAAAATTCCTTTA [XGTACX_site8058] | 6.98 |
| TTATTTATAAACATATGTACTAATACATGATTAACA [XGTACX_site7645] | 6.26 |
| GACATATATATAAAATGTACATATATATTTACATAT [XGTACX_site7822] | 6.44 |
| AATTTATGTTTTAAAAGTACTTTTCTAATTTATAAA [XGTACX_site1593] | 6.16 |
| CTAAAGTAAATTTAAGCACACACAACGAATTTTTAT [CACACA_site8599] | 6.7 |
| TATGTACAGACATATACACACCTCTATAATCTATAT [CACACA_site6482] | 6.88 |
| AATTAAAAAAAATACACACACACATACCCATATATA [CACACA_site5767] | 6.95 |
| AATGATATATTATAAACACACAAAGATGAATATATA [CACACA_site2818] | 6.52 |
| TACCCTCGTATATATATACACACTAAAATACAGACA [CACACA_site4154] | 6.98 |
| ATTCATTCATATGTTACACACACACCCACCCATAAA [CACACA_site9066] | 8.05 |
| GTTCCATGAGTATATACATGCATATATCTAGTTTAT [TGCATGCA_site388] | 7.16 |
| TGTTTATACAATATTTGTACATATATTTTTATTTTT [XGTACX_site4104] | 6.66 |
| TTTTAAATAAAAAAATTAAATTAAAATATATAAAAA [XGTACX_negctrl_site490] | 5.97 |
| CATTTTTACAACGTTGCACACTTCAAAAGGTTTACA [CACACA_site2760] | 9.32 |
| GATACTCTCTTTTAATGTACAAAATTTTAAAAATTA [XGTACX_site1781] | 6.93 |
| TATAAAAAAAAAAAAAGTACTTAAATATAAATAAAT [XGTACX_site5052] | 6.37 |
| TTATGAAGCAGACATGCATGTTATGGCTTAAATAAT [TGCATGCA_site492] | 6.67 |
| AAAAAAGAAAAAAACTGTACATGATAAATATTTATT [XGTACX_site7270] | 6.61 |

| Sequence | gcPBM binding intensity (ln) |
| --- | --- |
| ACATTTTTTTTGTGAGTCTTTGCGGCATCAAAATTT [XGTACX_negctrl_site348] | 5.85 |
| AGATTATATAAAAAAGTGCATATTTTCATTTTTTTT [GTGCAC_site9448] | 6.98 |
| TTTATCGAATATAATAGTACATAAAAAAAAAAAAAA [XGTACX_site1734] | 6.53 |
| CATTAAAATGGTAAATGTACATATCCATCTTCTCAC [XGTACX_site4636] | 6.29 |
| TCCCTTTGTATATATATATAAATATATATATATATA [CACACA_negctrl_site157] | 8.83 |
| ACTGTAATATTGAAAGTGCATTAAAGTGTATATTAT [GTGCAC_site9970] | 9.24 |
| TTATTTTATTTAGGGTGTACCCAATTTTTCCATATG [XGTACX_site4957] | 6.39 |
| AAAAATTTTTTACATCGTACAGATATATATAATAAA [XGTACX_site3331] | 6.45 |
| ATTTATATTTATAAATGTACACATATATATTTCATT [XGTACX_site2723] | 6.37 |
| TCCTATAATTTTTTAATCAAAATATTTTATCCTTTG [CACACA_negctrl_site793] | 6.41 |
| AAAAGTAAAAAAAAAAAAAGTAAAAAAAAAAAAAAA [CACACA_negctrl_site389] | 5.78 |
| TAATTTTTTTAAAAGCGTACATTTAAAAAAAAATAT [XGTACX_site2736] | 6.03 |
| TTACAGATATTTATCTGTACATATATTTAAAAATAT [XGTACX_site7431] | 6.08 |
| TCTTATCATTTTAAATCACACACATATATATATATA [CACACA_site8925] | 9.26 |
| TTTTTAAATTCTTTAATATGTTTTATATATCAAAAT [CACACA_negctrl_site75] | 6 |
| GTGATTAATATATACACACATACATATATATATATA [CACACA_site2817] | 9.28 |
| ATATATATGTATACATGTACATATTTTATTATGTGC [XGTACX_site7207] | 6.53 |
| AAGAATAACTTTTATACATGCAGCATAATATATTGT [TGCATGCA_site605] | 6.67 |
| TGTACATATATATATATATATGTTACTGAAATAAAA [CACACA_negctrl_site1658] | 6.7 |
| CTTTTATAATTCATATGTACTTATTTTTAACATAGG [XGTACX_site7808] | 6.59 |
| TCTTTTAACACATGTGATATTATTTAATAACAATAA [CACACA_negctrl_site339] | 6.51 |
| GGTATACACAAGTATACACACATATAAATATAAATA [CACACA_site7511] | 6.76 |
| AATAACCACAGACACACACACATATAAATATAAATA [CACACA_site7631] | 6.93 |
| GTTTTTTTGTTTTAAAGTACTTAAAAAAAAAATATA [XGTACX_site6998] | 6.46 |
| GATAAAACGTTATGCACACGTACGTGAGTATTTATA [CACACA_site1570] | 10.4 |
| AACAAAACTTTGGATACATGCAAAATTTTTAAATGA [TGCATGCA_site249] | 6.29 |
| AATGATAAATAAAAAGCATGCAACAAATAAAAATAA [TGCATGCA_site453] | 7.58 |
